From PubChem BioAssay AID492947 (National Center for Advancing Translational Sciences (NCATS), 2010)
The whole screen tested about 330,000 compounds, of which about 80 (0.02%) were called active. Inconclusive means that the source gave no clear call. Such entries were picked first, then a sample of the others. Calls follow the shape of the dose curve; as a rule, active = well fitted activation curve with a large enough effect; inconclusive = small, poorly fitted or top-dose-only effect; inactive = flat fitted curve, though single readings scatter. No potency is given beside an inconclusive call; the fits are too rough.

Biological target: Beta-2 adrenergic receptor (Homo sapiens) (UniProt P07550)
Assay: qHTS assay of beta-arrestin-biased ligands of beta2-adrenergic receptor; also: nearly all actives have a fitted effect of over 65% in size
Settings: beta-arrestin recruitment to beta2AR, cell-based reporter; series mostly up to 46.1 µM
Outline: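 qHTS, Tango cells, 1500 cells/well, DMEM + 1% FBS. Cpd 18 hr at 37 degrees C. Luciferin/ATP/CoA detection mix, 15 min RT, luminescence read. %Activity from corrected signal; CRC fit, curve class.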
Potency is read from the fitted curve at half-maximal effect; tags tell the direction and shape of the fitted curve.

Sequence of UniProt P07550 (P07550 whole entry, looked up): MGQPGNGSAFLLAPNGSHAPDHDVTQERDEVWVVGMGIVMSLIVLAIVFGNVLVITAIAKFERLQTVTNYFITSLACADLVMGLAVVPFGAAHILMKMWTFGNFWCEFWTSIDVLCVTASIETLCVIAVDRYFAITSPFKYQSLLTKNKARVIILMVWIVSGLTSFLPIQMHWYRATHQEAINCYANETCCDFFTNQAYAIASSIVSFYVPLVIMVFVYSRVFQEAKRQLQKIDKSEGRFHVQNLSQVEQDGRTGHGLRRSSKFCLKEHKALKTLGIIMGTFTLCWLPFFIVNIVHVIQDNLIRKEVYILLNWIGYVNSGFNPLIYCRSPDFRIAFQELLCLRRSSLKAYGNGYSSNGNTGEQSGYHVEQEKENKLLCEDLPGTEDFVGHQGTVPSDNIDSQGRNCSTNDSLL

| SMILES | Potency |
| --- | --- |
| Cc1cc(C)cc(N2C(=O)NC(=O)/C(=C\C=C\c3ccco3)C2=O)c1 | inconclusive [rising, single point] |
| CN1CCN(C(=O)COc2ccc(S(=O)(=O)Nc3ccc(F)cc3)cc2)CC1 | inconclusive [rising, single point] |
| CCN1CCN(c2ncnc3ccc(Br)cc23)CC1 | inactive |
| COc1cccc(OCc2cc(C(=O)N3C[C@H]4C[C@@H](C3)c3cccc(=O)n3C4)no2)c1 | inconclusive [rising, single point] |
| COC(=O)C1=C(c2ccc(OC)c(OC)c2)C[C@@H]2CC[C@H]1N2C(=O)NCc1cccc2ccccc12 | inconclusive [rising, single point] |
| C=CCn1c(=O)c(C(=O)NCc2ccccc2)c(O)c2ccccc21 | inconclusive [rising, full curve, poor fit] |
| Oc1cc2c(cc1O)[C@H]1c3ccccc3CN[C@@H]1CC2 | inactive |
| CCCC1COC(Cn2cncn2)(c2ccc(Cl)cc2Cl)O1 (stereo not drawn) | inactive |
| COC(=O)C1=C(c2ccc(OCc3ccccc3)cc2)C[C@@H]2CC[C@H]1N2C(=O)NCc1cccc(OC)c1 | inconclusive [rising, single point] |
| CCOc1ccc(N2C(=O)/C(=C/c3ccco3)C(=O)NC2=S)cc1 | inactive |
| O=C(NCc1cccnc1)C(Cl)(Cl)Cl | inconclusive [rising, single point] |
| CC(C)[C@@]1(NC(=O)[C@@H]2C[C@@H]3c4cccc5[nH]cc(c45)C[C@H]3N(C)C2)O[C@@]2(O)[C@@H]3CCCN3C(=O)[C@H](Cc3ccccc3)N2C1=O | inconclusive [activator, full curve] |
| COC(=O)C1=C(c2ccc(OCc3ccccc3)cc2)C[C@@H]2CC[C@H]1N2C(=O)NCc1ccc(OC)c(OC)c1 | active: 18.4 µM |
| COC(=O)C1=C(c2ccc(-c3ccccc3)c(F)c2)C[C@@H]2CC[C@H]1N2C(=O)NCCOc1ccccc1 | inactive |
| CC(C)CCNC(=O)Cn1c(=O)oc2cc(S(=O)(=O)N3CCc4ccccc43)ccc21 | inconclusive [rising, single point] |
| COC(=O)C1=C(c2ccc(-c3ccccc3)c(F)c2)C[C@@H]2CC[C@H]1N2C(=O)NCCOc1ccc(OC)cc1 | inconclusive [rising, single point] |
| COC(=O)C1=C(c2ccc(-c3ccccc3)c(F)c2)C[C@@H]2CC[C@H]1N2C(=O)NCc1ccco1 | inconclusive [rising, single point] |
| Clc1ccc2[nH]c3c(c2c1)CCNC3 | inactive |
| Cn1cc(C(O)CN2CCCCC2)c2ccccc21 (stereo not drawn) | inconclusive [rising, single point] |
| CC(=O)c1ccc2c(c1)C1C(Cl)C(Sc3ccccc3[N+](=O)[O-])CC1C(c1ccccc1)N2 (stereo not drawn) | inconclusive [activator, partial curve] |
| O=C1NC2NC(=O)N([N+](=O)[O-])C2N1 (stereo not drawn) | inconclusive [rising, single point] |
| S=C=Nc1cccc(C2(N3CCCCC3)CCCCC2)c1 | inconclusive [rising, single point] |

| SMILES | Potency |
| --- | --- |
| COc1ccc2cc1Oc1ccc(cc1)C[C@H]1c3cc(c(OC)cc3CCN1C)Oc1c(O)c(OC)cc3c1[C@H](C2)N(C)CC3 | inconclusive [activator, partial curve] |
| CN1CCc2cccc(Cl)c2CC1 | inactive |
| Cc1cccc(N2C(=O)NC(=O)/C(=C\C=C\c3ccco3)C2=O)c1 | inactive |
| CCN(CC)CCN=Cc1c(O)n(Cc2ccccc2)c(=O)[nH]c1=O | inconclusive [rising, single point] |
| Oc1cc2c(cc1CN1CCN(c3ccc(F)cc3)CC1)OCO2 | inactive |
| C=Cn1ccnc1P(=S)(c1nccn1C=C)C1CCCCC1 | inactive |
| CC(=O)NCC(=O)Nc1ccc(Br)cc1C(=O)c1ccccc1 | inconclusive [rising, single point] |
| O=[N+]([O-])c1ccc(CN2CC=C(c3ccccc3)CC2)cc1 | inactive |
| OC(CN1CCC(c2c[nH]c3ccccc23)CC1)C(F)(F)F (stereo not drawn) | inactive |
| c1cncc(C2Nc3cccc4cccc(c34)N2)c1 | inconclusive [rising, single point] |
| COc1ccc(CCNCc2ccc(C)s2)cc1OC | inconclusive [rising, partial curve, poor fit] |
| CN1CC[C@]2(c3cccc(O)c3)Cc3nc4ccccc4cc3C[C@H]2C1 | active: 11.2 µM |
| S=c1[nH]nc(-c2ccccc2)n1C1C=CCCC1 (stereo not drawn) | inconclusive [rising, single point] |
| O=C1NC(=O)N(Cc2ccc(F)cc2)C(=O)/C1=C\C=C\c1ccco1 | inconclusive [rising, single point] |
| CCN(CC)C(=O)Cn1cc(/C=C2\C(=O)NC(=O)N(c3ccccc3F)C2=O)c2ccccc21 | inconclusive [rising, single point] |
| COc1cccc(C(=O)C2CCCN(Cc3cccc(C)n3)C2)c1 (stereo not drawn) | inconclusive [rising, single point] |
| On1ccccc1=S | inconclusive [activator, full curve] |
| Cc1ccsc1C(=O)C1CCCN(CCO)C1 (stereo not drawn) | inconclusive [rising, single point] |
| CC(C)NS(=O)(=O)c1ccc(OCC(=O)N2CCN(Cc3ccc4c(c3)OCO4)CC2)c(Cl)c1 | inactive |
| Clc1ccc2c(c1)C(c1ccccc1Cl)=NCc1nnc(N3CCN(CCOc4ccccc4)CC3)n1-2 | inconclusive [rising, single point] |
| COC(=O)C1=C(c2ccc(OCc3ccccc3)cc2)C[C@@H]2CC[C@H]1N2C(=O)NCc1cccc(C(F)(F)F)c1 | inconclusive [rising, full curve, poor fit] |
